Compound in this experiment: CCCCCCCCCCCC1=C(O)C(=O)C=C(O)C1=O [Embelin]
The experiment is described as follows: Viability of human cancer cell lines after 72 h of drug (GDSC screen). Conditions: top dose 32 µM; top dose inferred. How it is done: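 Human cancer cell lines in 384-well plates, medium with 10% serum, drug for 72 h over a 256-fold dose range (nine 2-fold or five 4-fold steps up to the top dose). Adherent lines were fixed and stained with the nucleic acid dye Syto60, suspension lines read with resazurin; signal relative to control wells, capped at 0 and 100%. One two-parameter sigmoid per drug and line, fitted in a mixed model over all curves with the slope shared within a line.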

A lower IC50 marks a more sensitive line; fits outside the tested doses are given as limits. AUC sums up the same curve from the lowest dose to the 256-fold higher top dose; the more sensitive the line, the further below 1. Any top dose called inferred was derived from the fitted curves, not read from the paper.

We go through 70 cell lines from the supplement of paper PMC4967469.

As a reminder, the IC50 is the concentration needed to halve the response being measured. Turning to “NCI-H187 (small cell lung carcinoma, suspension)”, the AUC was 0.944 and the half-inhibitory concentration (IC50) was over 32 µM.

“NCI-H196 (small cell lung carcinoma, adherent)”: the AUC came out at 0.815 and the IC50 came out at 18.6 µM.

“NCI-H209 (small cell lung carcinoma, suspension)”: the AUC amounted to 0.875 and the IC50 was over 32 µM.

Turning to “NCI-H211 (small cell lung carcinoma, adherent)”, the AUC is 0.92 and the concentration for half-maximal inhibition (IC50) was over 32 µM.

On to “NCI-H226 (lung squamous cell carcinoma, adherent)”, for which the AUC was found to be 0.822 and the IC50 was found to be 20 µM.

Consider “NCI-H292 (lung adenocarcinoma, adherent)”, for which the AUC was found to be 0.851 and the half-inhibitory concentration (IC50) is over 32 µM.

With “NCI-H322M (lung adenocarcinoma, suspension)”, the AUC worked out at 0.986 and the IC50 was over 32 µM.

For “NCI-H345 (small cell lung carcinoma, suspension)”, the AUC is 0.973 and the half-maximal inhibitory concentration (IC50) was over 32 µM.

For the cell line “NCI-H358 (lung adenocarcinoma, adherent)”, the AUC came to 0.78 and the IC50 was 14.8 µM.

Consider “NCI-H441 (lung adenocarcinoma, adherent)”, for which the AUC is 0.676 and the IC50 was determined as 7.63 µM.

Regarding “NCI-H446 (small cell lung carcinoma, semi-adherent)”, the AUC came to 0.946 and the IC50 was over 32 µM.

Turning to “NCI-H460 (large cell lung carcinoma, adherent)”, the AUC stood at 0.671 and the IC50 is 5.69 µM.

As to “NCI-H510A (small cell lung carcinoma, semi-adherent)”, the AUC was 0.984 and the IC50 was over 32 µM.

On to “NCI-H520 (lung squamous cell carcinoma, adherent)”, for which the AUC was 0.814 and the IC50 amounted to 18.1 µM.

For “NCI-H522 (lung adenocarcinoma, adherent)”, the AUC is 0.76 and the IC50 was 13.3 µM.

Take “NCI-H524 (small cell lung carcinoma, suspension)”: the AUC was determined as 0.963 and the IC50 was over 32 µM.

For “NCI-H526 (small cell lung carcinoma, suspension)”, the AUC is 0.894 and the IC50 is over 32 µM.

Turning to “NCI-H596 (lung adenocarcinoma, adherent)”, the AUC came out at 0.797 and the 50% inhibitory concentration (IC50) was determined as 20.5 µM.

As to “NCI-H647 (non-small cell lung carcinoma, adherent)”, the AUC worked out at 0.84 and the IC50 was 23.6 µM.

As for “NCI-H650 (lung adenocarcinoma, adherent)”, the AUC turned out to be 0.784 and the IC50 turned out to be 15 µM.

“NCI-H661 (large cell lung carcinoma, adherent)”: the AUC worked out at 0.814 and the IC50 came to 22.2 µM.

On to NCI-H716 (large intestine, suspension), for which the AUC amounted to 0.95 and the IC50 is over 32 µM.

NCI-H720 (lung carcinoid, suspension): the AUC came to 0.991 and the concentration for half-maximal inhibition (IC50) was over 32 µM.

Regarding NCI-H727 (lung carcinoid, adherent), the AUC was 0.665.

NCI-H747 (large intestine, adherent): the AUC amounted to 0.783 and the IC50 was 16.6 µM.

With “NCI-H748 (small cell lung carcinoma, suspension)”, the AUC came out at 0.911 and the IC50 is over 32 µM.

Consider “NCI-H810 (large cell lung carcinoma, adherent)”, for which the AUC was 0.724 and the IC50 is 8.38 µM.

As to “NCI-H838 (lung adenocarcinoma, adherent)”, the AUC worked out at 0.915 and the IC50 is over 32 µM.

Take “NCI-H841 (small cell lung carcinoma, adherent)”: the AUC came out at 0.754 and the IC50 was found to be 10.8 µM.

As to “NCI-H847 (small cell lung carcinoma, adherent)”, the AUC came to 0.694 and the IC50 turned out to be 6.21 µM.

In the case of “NCI-H1048 (small cell lung carcinoma, adherent)”, the AUC came out at 0.772 and the IC50 was 11.2 µM.

On to “NCI-H1092 (small cell lung carcinoma, suspension)”, for which the AUC was 0.913 and the IC50 is over 32 µM.

In the case of “NCI-H1155 (large cell lung carcinoma, suspension)”, the AUC turned out to be 0.949 and the IC50 is over 32 µM.

For the cell line “NCI-H1299 (large cell lung carcinoma, adherent)”, the AUC is 0.734 and the IC50 was determined as 11 µM.

Turning to “NCI-H1304 (small cell lung carcinoma, suspension)”, the AUC worked out at 0.832 and the IC50 was 22.7 µM.

Turning to “NCI-H1355 (lung adenocarcinoma, adherent)”, the AUC was determined as 0.744 and the IC50 is 14 µM.

For the cell line “NCI-H1395 (lung adenocarcinoma, adherent)”, the AUC was determined as 0.944 and the half-maximal inhibitory concentration (IC50) is over 32 µM.

For “NCI-H1417 (small cell lung carcinoma, suspension)”, the AUC came to 0.855 and the IC50 was over 32 µM.

Turning to “NCI-H1435 (lung adenocarcinoma, semi-adherent)”, the AUC was determined as 0.795 and the IC50 stood at 13.1 µM.

Turning to “NCI-H1436 (small cell lung carcinoma, suspension)”, the AUC was found to be 0.94 and the IC50 was over 32 µM.

“NCI-H1437 (lung adenocarcinoma, adherent)”: the AUC was determined as 0.678 and the IC50 amounted to 6.43 µM.

As for “NCI-H1563 (lung adenocarcinoma, adherent)”, the AUC was found to be 0.797 and the IC50 was 18.5 µM.

For the cell line “NCI-H1568 (lung adenocarcinoma, adherent)”, the AUC is 0.665 and the IC50 came to 6.51 µM.

For the cell line “NCI-H1573 (lung adenocarcinoma, adherent)”, the AUC was 0.951 and the IC50 was over 32 µM.

For “NCI-H1581 (large cell lung carcinoma, semi-adherent)”, the AUC was determined as 0.911 and the IC50 was over 32 µM.

For the cell line “NCI-H1623 (lung adenocarcinoma, adherent)”, the AUC was determined as 0.846 and the IC50 stood at 31.6 µM.

Turning to “NCI-H1648 (lung adenocarcinoma, adherent)”, the AUC was found to be 0.752 and the IC50 was found to be 11.2 µM.

As to “NCI-H1651 (lung adenocarcinoma, adherent)”, the AUC was 0.669 and the half-inhibitory concentration (IC50) was 6.16 µM.

For the cell line “NCI-H1666 (lung adenocarcinoma, semi-adherent)”, the AUC is 0.931 and the IC50 was over 32 µM.

With “NCI-H1688 (small cell lung carcinoma, adherent)”, the AUC came to 0.876 and the IC50 is over 32 µM.

Regarding “NCI-H1693 (lung adenocarcinoma, adherent)”, the AUC turned out to be 0.943 and the IC50 was over 32 µM.

As for “NCI-H1694 (small cell lung carcinoma, suspension)”, the AUC was 0.93 and the IC50 is over 32 µM.

For “NCI-H1703 (lung adenocarcinoma, adherent)”, the AUC is 0.831 and the IC50 stood at 26.6 µM.

As to “NCI-H1734 (lung adenocarcinoma, adherent)”, the AUC is 0.811 and the IC50 is 19.2 µM.

Regarding “NCI-H1755 (lung adenocarcinoma, adherent)”, the AUC was found to be 0.888 and the IC50 is over 32 µM.

For the cell line “NCI-H1770 (non-small cell lung carcinoma, suspension)”, the AUC stood at 0.762 and the IC50 was determined as 10.1 µM.

With “NCI-H1781 (lung adenocarcinoma, adherent)”, the AUC amounted to 0.85 and the IC50 is 24.2 µM.

Take “NCI-H1792 (lung adenocarcinoma, adherent)”: the AUC was determined as 0.859 and the IC50 amounted to 22.4 µM.

As to “NCI-H1793 (lung adenocarcinoma, adherent)”, the AUC is 0.926 and the IC50 was over 32 µM.

Consider “NCI-H1836 (small cell lung carcinoma, suspension)”, for which the AUC worked out at 0.929 and the IC50 is over 32 µM.

Turning to “NCI-H1838 (lung adenocarcinoma, adherent)”, the AUC amounted to 0.955 and the IC50 is over 32 µM.

Regarding “NCI-H1869 (lung squamous cell carcinoma, adherent)”, the AUC was found to be 0.875 and the IC50 was over 32 µM.

As for “NCI-H1876 (small cell lung carcinoma, adherent)”, the AUC is 0.776 and the IC50 was 12.9 µM.

Consider “NCI-H1915 (large cell lung carcinoma, adherent)”, for which the AUC worked out at 0.737 and the IC50 amounted to 9.65 µM.

“NCI-H1944 (lung adenocarcinoma, adherent)”: the AUC worked out at 0.737 and the IC50 amounted to 10 µM.

For the cell line “NCI-H1963 (small cell lung carcinoma, suspension)”, the AUC came to 0.921 and the IC50 was over 32 µM.

Consider “NCI-H1975 (lung adenocarcinoma, adherent)”, for which the AUC stood at 0.845 and the IC50 amounted to 28.3 µM.

As to “NCI-H1993 (lung adenocarcinoma, adherent)”, the AUC turned out to be 0.893 and the IC50 was over 32 µM.

With “NCI-H2009 (lung adenocarcinoma, adherent)”, the AUC amounted to 0.684 and the IC50 is 6.76 µM.

For the cell line “NCI-H2023 (lung adenocarcinoma, adherent)”, the AUC worked out at 0.847 and the IC50 is over 32 µM.
